Experimental data as given in ChEMBL document CHEMBL4888484, “Replenishing the malaria drug discovery pipeline: Screening and hit evaluation of the MMV Hit Generation Library 1 (HGL1) against asexual blood stage Plasmodium falciparum ,using a nano luciferase reporter read-out” (2022).
The whole screen tested about 150,000 compounds, of which about 540 (0.36%) showed an effect of 50% or more. The list shows a part of the results.

System: Plasmodium falciparum
Experiment: Primary screen in NF54 nanoGlo assay, in single point, at 2uM, 72h; a lower Z score goes with more inhibition
Assay type: functional, Erythrocyte
Conditions: timepoint 72 hour

First: O=C(Cc1cccnc1)NC1CCCCCC1CO (centres undefined)
Second: O=C(Cc1ccc(-c2ccccc2)cc1)N1CC[C@@H](CO)[C@@H](O)C1
The “% Inhibition” value of the first is lower: -19% for the first, -8% for the second.

First: COc1ccc(F)cc1C(=O)N1CCC2(CC1)CC(=O)NC(=O)C2
Second: O=C(CCc1ccccc1F)N1CCC2(CC1)C[C@H](O)CNC2=O
The “% Inhibition” value of the first is higher: -5% for the first, -13% for the second.

First: CCc1ccc(C(C)C(=O)N2C[C@H](OC)C[C@H]2c2ncc[nH]2)cc1 (some centres undefined)
Second: COCCN1CCC(CN(Cc2ccncc2)C(=O)c2ccc(F)c(C)c2)CC1
The “% Inhibition” value of the first is higher: -1% for the first, -8% for the second.

Compared with `CCNC(=O)[C@H]1CCCN(c2nc3ncn(CC(=O)Nc4ccccc4OC)c(=O)c3s2)C1`, `COc1ccc(C)cc1NC(=O)CN(C)S(=O)(=O)c1ccc2c(c1)C[C@H](C)N2C(=O)C1CCC1` is higher in “% Inhibition” value: -20% for the first, 0% for the second.

Compared with `Cc1cc(C)nc(N[C@H](c2ccc(F)cc2)c2cc(C)sc2NC(=O)c2ccccc2)n1`, `O=C(C[C@@H]1CCNC[C@@H]1Cc1cc(COc2ccccc2)on1)NCc1ccc(F)cc1` is higher in “% Inhibition” value: 36% for the first, 42% for the second.

Compared with `C[C@H]1Cc2cnccc2N1S(=O)(=O)c1cnn(C2CCC2)c1`, `CC(=O)N[C@H]1CN(S(=O)(=O)Cc2ccccc2Cl)C[C@@H]1C1CC1` is lower in “% Inhibition” value: 7% for the first, -1% for the second.

First: COc1cccc2c(=O)c(C#N)cn(Cc3ccccc3)c12
Second: COc1ccc(NS(=O)(=O)c2ccc(F)cc2)cc1N1CCCN(Cc2cccc(C)c2)C1=O
The “% Inhibition” value of the first is lower: -24% for the first, -10% for the second.

Going from `Cc1cc(OC2CCN(C(=O)c3cc4ccccc4s3)CC2)nc(C)n1` to `CNc1cc(-c2cccc(C(=O)N3CCC4(CCO4)CC3)c2)nc(N)n1`, the “% Inhibition” value falls from -10% to -25%.

Going from `COCc1ncsc1C(=O)N[C@H]1CC(C)(C)CCc2ccccc21` to `O=C(NC1Cc2ccccc2C1)c1cc(C2CC2)n[nH]1`, the “% Inhibition” value falls from -14% to -22%.

Compared with `O=C(NCCc1nccn1Cc1ccccc1)C1C2CC1CN(Cc1ccccc1)C2` (centres undefined), `NC(=O)NCC(=O)N1CCc2[nH]nc(C(c3ccccc3)c3ccccc3)c2C1` is lower in “% Inhibition” value: 0% for the first, -9% for the second.

First: O=C(NCCc1noc(C(F)(F)F)n1)c1ncoc1C1CC1
Second: Cc1noc(C)c1CN(C)Cc1noc(-c2ccco2)n1
The “% Inhibition” value of the first is lower: -4% for the first, 0% for the second.

First: COc1ccc(N2CN3O[C@]4(CC[C@H]5C[C@@H]4C5(C)C)C[C@@]3(c3ccccc3)C2)cc1
Second: CCCNC(=O)CN(Cc1cccs1)c1ccc(OC)cc1
The “% Inhibition” value of the first is lower: -40% for the first, -9% for the second.

Going from `O=C(NCCCF)c1ccc(O)cc1O` to `Cc1ccc(O)cc1C(=O)NC1CCN(c2n[nH]c(O)n2)CC1`, the “% Inhibition” value falls from -5% to -11%.

Going from `c1ccc2c(c1)ncn2CCN1CCC2(CCCC2)C1` to `CC(C)CC(=O)N1CC[C@@H]2CN(Cc3ccccc3)[C@@H]2C1`, the “% Inhibition” value falls from 15% to -8%.

Going from `C[C@@H](C(=O)NCc1ccco1)n1cncn1` to `CCOC[C@H]1CCN(C(=O)Nc2ccnc(OC)n2)C1`, the “% Inhibition” value rises from -12% to -5%.

Going from `Cc1cc(CN2Cc3cnn(CCO)c3C2)c(C)c(CN2CCC[C@H](C)C2)c1` to `Cc1ccsc1CN1CCC[C@H](N(CCN2CCCCC2)S(C)(=O)=O)C1`, the “% Inhibition” value rises from -1% to 9%.

First: CC1CCCN(S(=O)(=O)N2CCCC(C3OCCO3)C2)C1 (centres undefined)
Second: O=C(CC1CC2CCC1C2)N1CCCC(n2ccnn2)CC1 (centres undefined)
The “% Inhibition” value of the first is lower: -13% for the first, 1% for the second.

First: CCCC[C@H](CCC)NC(=O)N1CCOCC1
Second: CC(C)n1cnc(C(=O)N[C@@]2(C)CCS(=O)(=O)C2)c1
The “% Inhibition” value of the first is higher: 0% for the first, -4% for the second.

First: C[C@]1(O)CCN(C(=O)c2cc(C#N)c[nH]2)C[C@H]1O
Second: COc1ncc(-c2c(C#N)c(N)nc3c2CCC[C@@H]3C)cn1
The “% Inhibition” value of the first is lower: -10% for the first, 3% for the second.

Going from `CC(C)c1nnc(C(=O)NCCN2C(=O)CNC2=O)s1` to `CC[C@@]1(C)Cc2ccccc2-c2[nH]c(=O)n(-c3cccc(C)c3)c(=O)c21`, the “% Inhibition” value rises from -2% to 0%.

Going from `O=C(Cc1ccc(Br)cc1)Nc1cc(OCc2ccc3c(c2)OCO3)ncn1` to `COCc1ncc(-c2noc([C@@H]3CCc4cc(C)ccc4O3)n2)c(N)n1`, the “% Inhibition” value falls from 8% to -10%.

Going from `O=C(Cc1cccnc1)NC1CCCCCC1CO` (centres undefined) to `O=C(Cc1ccc(-c2ccccc2)cc1)N1CC[C@@H](CO)[C@@H](O)C1`, the Z score falls from 1.71 to 1.14.

Going from `COc1ccc(F)cc1C(=O)N1CCC2(CC1)CC(=O)NC(=O)C2` to `O=C(CCc1ccccc1F)N1CCC2(CC1)C[C@H](O)CNC2=O`, the Z score rises from 0.66 to 1.29.

First: CCc1ccc(C(C)C(=O)N2C[C@H](OC)C[C@H]2c2ncc[nH]2)cc1 (some centres undefined)
Second: COCCN1CCC(CN(Cc2ccncc2)C(=O)c2ccc(F)c(C)c2)CC1
The Z score of the first is lower: 0.14 for the first, 1.57 for the second.

Going from `CCNC(=O)[C@H]1CCCN(c2nc3ncn(CC(=O)Nc4ccccc4OC)c(=O)c3s2)C1` to `COc1ccc(C)cc1NC(=O)CN(C)S(=O)(=O)c1ccc2c(c1)C[C@H](C)N2C(=O)C1CCC1`, the Z score falls from 1.74 to 0.04.

Going from `Cc1cc(C)nc(N[C@H](c2ccc(F)cc2)c2cc(C)sc2NC(=O)c2ccccc2)n1` to `O=C(C[C@@H]1CCNC[C@@H]1Cc1cc(COc2ccccc2)on1)NCc1ccc(F)cc1`, the Z score rises from -4.86 to -1.64.

Compared with `C[C@H]1Cc2cnccc2N1S(=O)(=O)c1cnn(C2CCC2)c1`, `CC(=O)N[C@H]1CN(S(=O)(=O)Cc2ccccc2Cl)C[C@@H]1C1CC1` is higher in Z score: -1.37 for the first, 0.18 for the second.

First: COc1cccc2c(=O)c(C#N)cn(Cc3ccccc3)c12
Second: COc1ccc(NS(=O)(=O)c2ccc(F)cc2)cc1N1CCCN(Cc2cccc(C)c2)C1=O
The Z score of the first is higher: 2.31 for the first, 1.42 for the second.

Compared with `Cc1cc(OC2CCN(C(=O)c3cc4ccccc4s3)CC2)nc(C)n1`, `CNc1cc(-c2cccc(C(=O)N3CCC4(CCO4)CC3)c2)nc(N)n1` is higher in Z score: 1.82 for the first, 2.52 for the second.

Going from `COCc1ncsc1C(=O)N[C@H]1CC(C)(C)CCc2ccccc21` to `O=C(NC1Cc2ccccc2C1)c1cc(C2CC2)n[nH]1`, the Z score rises from 1.39 to 1.96.

Compared with `O=C(NCCc1nccn1Cc1ccccc1)C1C2CC1CN(Cc1ccccc1)C2` (centres undefined), `NC(=O)NCC(=O)N1CCc2[nH]nc(C(c3ccccc3)c3ccccc3)c2C1` is higher in Z score: 0.02 for the first, 1.29 for the second.

First: O=C(NCCc1noc(C(F)(F)F)n1)c1ncoc1C1CC1
Second: Cc1noc(C)c1CN(C)Cc1noc(-c2ccco2)n1
The Z score of the first is higher: 0.59 for the first, 0.04 for the second.

Going from `COc1ccc(N2CN3O[C@]4(CC[C@H]5C[C@@H]4C5(C)C)C[C@@]3(c3ccccc3)C2)cc1` to `CCCNC(=O)CN(Cc1cccs1)c1ccc(OC)cc1`, the Z score falls from 4.72 to 1.11.

Going from `O=C(NCCCF)c1ccc(O)cc1O` to `Cc1ccc(O)cc1C(=O)NC1CCN(c2n[nH]c(O)n2)CC1`, the Z score rises from 0.55 to 1.73.

Compared with `c1ccc2c(c1)ncn2CCN1CCC2(CCCC2)C1`, `CC(C)CC(=O)N1CC[C@@H]2CN(Cc3ccccc3)[C@@H]2C1` is higher in Z score: -2.29 for the first, 0.93 for the second.

Going from `C[C@@H](C(=O)NCc1ccco1)n1cncn1` to `CCOC[C@H]1CCN(C(=O)Nc2ccnc(OC)n2)C1`, the Z score falls from 2.4 to 0.65.

Going from `Cc1cc(CN2Cc3cnn(CCO)c3C2)c(C)c(CN2CCC[C@H](C)C2)c1` to `Cc1ccsc1CN1CCC[C@H](N(CCN2CCCCC2)S(C)(=O)=O)C1`, the Z score falls from 0.2 to -1.23.

First: CC1CCCN(S(=O)(=O)N2CCCC(C3OCCO3)C2)C1 (centres undefined)
Second: O=C(CC1CC2CCC1C2)N1CCCC(n2ccnn2)CC1 (centres undefined)
The Z score of the first is higher: 1.75 for the first, -0.16 for the second.

Compared with `CCCC[C@H](CCC)NC(=O)N1CCOCC1`, `CC(C)n1cnc(C(=O)N[C@@]2(C)CCS(=O)(=O)C2)c1` is higher in Z score: 0.07 for the first, 0.47 for the second.

First: C[C@]1(O)CCN(C(=O)c2cc(C#N)c[nH]2)C[C@H]1O
Second: COc1ncc(-c2c(C#N)c(N)nc3c2CCC[C@@H]3C)cn1
The Z score of the first is higher: 1.91 for the first, -0.48 for the second.

First: CC(C)c1nnc(C(=O)NCCN2C(=O)CNC2=O)s1
Second: CC[C@@]1(C)Cc2ccccc2-c2[nH]c(=O)n(-c3cccc(C)c3)c(=O)c21
The Z score of the first is higher: 0.24 for the first, 0.01 for the second.

First: O=C(Cc1ccc(Br)cc1)Nc1cc(OCc2ccc3c(c2)OCO3)ncn1
Second: COCc1ncc(-c2noc([C@@H]3CCc4cc(C)ccc4O3)n2)c(N)n1
The Z score of the first is lower: -1.57 for the first, 0.85 for the second.
